Results filed as inconclusive are left out. Calls come from the whole dose curve; tested in HEK293 reporter line. Some compounds were tested as several samples or in several runs, with calls that do not always agree. The source holds more than one record for some entries. They are shown here; other results are not. There may be further records. The records of an entry repeat one measurement in other runs, samples, wells, individuals or studies. What stands in brackets tells the records apart. Letters count within one entry.
Note: nearly all actives have a fitted effect of over 80% in size.
Potency is the fitted concentration of half-maximal effect.

A short description of the first assay: qHTS for Inhibitors of the Functional Ribonucleoprotein Complex (vRNP) of Lassa (LASV) Arenavirus: Viability assay - alamar blue signal for LASV Primary Screen (AID 1347083). Conditions: cell viability, alamar blue fluorescence (LASV minigenome counter-screen); series mostly up to 57.5 µM. (In general: qHTS replaces the single test concentration by a dilution series.)
Regarding `CN1CCC(=C2c3ccccc3CC(=O)c3sccc32)CC1`, the Potency result is “inactive [sample A] and active: 27.3 µM [sample B] and inactive [sample C]”.

With `O=C(NOCC1CC1)c1ccc(F)c(F)c1Nc1ccc(I)cc1Cl`, the Potency entry was “inactive [sample A] and active: 7.69 µM [sample B]”.

For `O=C(Nc1ccc([N+](=O)[O-])cc1Cl)c1cc(Cl)ccc1O`, the Potency entry is “active: 7.08 µM [sample A] and inactive [sample B]”.

For `O=C1N(c2ccccc2)c2ccccc2C1(Cc1ccncc1)Cc1ccncc1`, the Potency entry is “inactive [sample A] and inactive [sample B] and active: 5.44 µM [sample C]”.

In the case of `CCCCC(CC)COC(=O)C(C#N)=C(c1ccccc1)c1ccccc1` (stereo unspecified), the Potency entry is “active: 8.63 µM [sample A] and inactive [sample B]”.

For `C[C@@H]1C[C@H]2[C@@H]3CCC4=CC(=O)C=C[C@]4(C)[C@@]3(Cl)[C@@H](O)C[C@]2(C)[C@@]1(OC(=O)c1ccco1)C(=O)CCl`, the Potency entry was “inactive [sample A] and active: 21.7 µM [sample B]”.

As to `CCC(=O)O[C@]1(C(=O)CCl)[C@@H](C)C[C@H]2[C@@H]3CCC4=CC(=O)C=C[C@]4(C)[C@@]3(F)[C@@H](O)C[C@@]21C`, the Potency entry is “inactive [sample A] and active: 9.68 µM [sample B]”.

Another assay can be described thus: qHTS for Inhibitors of the Functional Ribonucleoprotein Complex (vRNP) of Lymphocytic Choriomeningitis Arenaviruses (LCMV): Viability assay - alamar blue signal for LCMV Primary Screen (AID 1347085). Conditions: alamar blue viability counter-screen, LCMV vRNP screen cells; series mostly up to 57.5 µM.
As for `O=C1N(c2ccccc2)c2ccccc2C1(Cc1ccncc1)Cc1ccncc1`, the Potency result is “inactive [sample A] and inactive [sample B] and active: 7.69 µM [sample C]”.

As for `CCCCC(CC)COC(=O)C(C#N)=C(c1ccccc1)c1ccccc1` (stereo unspecified), the Potency result was “active: 17.2 µM [sample A] and inactive [sample B]”.

Consider `C[C@@H]1C[C@H]2[C@@H]3CCC4=CC(=O)C=C[C@]4(C)[C@@]3(Cl)[C@@H](O)C[C@]2(C)[C@@]1(OC(=O)c1ccco1)C(=O)CCl`, for which the Potency result is “inactive [sample A] and active: 12.2 µM [sample B]”.

On to `O=C(O)c1cccc(-c2noc(-c3ccccc3F)n2)c1`, for which the Potency result is “active: 17.2 µM [sample A] and inactive [sample B]”.

(Values after PubChem BioAssay (NCATS).)
